Assay results reported in PMC7337969.
These are yes or no findings as the source states them, for the method shown. Binding seen in cells or lysates may run through a third protein. Some results given as binding are weak or reduced against the parent protein; the word gives no strength. Tags and fused reporters may be left off the sequences shown.

How the values were obtained:
Assay in all cases: co-IP; FLAG-tagged HSF2BP and GFP-tagged MEIOK21 (full length or truncations) co-transfected into HEK-293T cells, lysed after 48 hours, precipitated with GFP antibody; IgG as control
[1] = target: T1, GFP-tagged MEIOK21(301-600) (mouse) (UniProt Q6DIA7)
T1 sequence: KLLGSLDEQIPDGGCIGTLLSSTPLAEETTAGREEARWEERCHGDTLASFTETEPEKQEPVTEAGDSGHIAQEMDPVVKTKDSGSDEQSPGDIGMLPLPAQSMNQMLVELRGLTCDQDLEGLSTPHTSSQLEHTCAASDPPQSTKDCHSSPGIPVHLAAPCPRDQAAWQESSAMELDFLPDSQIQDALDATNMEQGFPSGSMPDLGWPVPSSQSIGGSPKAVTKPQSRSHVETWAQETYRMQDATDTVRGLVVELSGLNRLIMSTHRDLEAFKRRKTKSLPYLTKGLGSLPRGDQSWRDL

[2] = target: T2, GFP-tagged MEIOK21(1-300) (mouse) (UniProt Q6DIA7)
T2 sequence: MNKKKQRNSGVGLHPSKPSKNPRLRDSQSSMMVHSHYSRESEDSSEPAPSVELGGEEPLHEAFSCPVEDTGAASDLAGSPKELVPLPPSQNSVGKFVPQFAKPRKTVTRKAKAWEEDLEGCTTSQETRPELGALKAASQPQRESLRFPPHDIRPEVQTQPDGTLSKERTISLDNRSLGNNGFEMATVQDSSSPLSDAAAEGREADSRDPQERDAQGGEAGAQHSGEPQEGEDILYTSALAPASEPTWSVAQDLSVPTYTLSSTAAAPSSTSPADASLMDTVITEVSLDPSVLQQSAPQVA

[3] = target: T3, GFP-tagged full length MEIOK21 (mouse) (UniProt Q6DIA7)
T3 sequence: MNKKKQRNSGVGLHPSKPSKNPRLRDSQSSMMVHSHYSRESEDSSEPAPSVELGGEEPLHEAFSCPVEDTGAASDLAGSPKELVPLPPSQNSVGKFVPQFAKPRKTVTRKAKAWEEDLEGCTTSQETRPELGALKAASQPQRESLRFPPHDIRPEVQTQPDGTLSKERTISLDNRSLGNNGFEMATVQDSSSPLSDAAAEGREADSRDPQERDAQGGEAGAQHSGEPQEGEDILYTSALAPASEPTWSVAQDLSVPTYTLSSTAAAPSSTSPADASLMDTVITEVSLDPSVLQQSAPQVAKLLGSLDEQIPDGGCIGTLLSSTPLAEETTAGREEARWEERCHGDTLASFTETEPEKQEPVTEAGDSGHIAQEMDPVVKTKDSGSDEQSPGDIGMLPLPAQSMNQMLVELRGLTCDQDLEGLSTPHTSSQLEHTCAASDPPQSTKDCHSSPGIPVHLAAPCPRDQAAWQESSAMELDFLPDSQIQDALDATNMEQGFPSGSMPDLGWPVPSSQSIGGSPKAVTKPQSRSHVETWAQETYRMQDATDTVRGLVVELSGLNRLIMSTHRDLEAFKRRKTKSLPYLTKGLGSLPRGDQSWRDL

[4] = target: T4, GFP-tagged MEIOK21(451-600) (mouse) (UniProt Q6DIA7)
T4 sequence: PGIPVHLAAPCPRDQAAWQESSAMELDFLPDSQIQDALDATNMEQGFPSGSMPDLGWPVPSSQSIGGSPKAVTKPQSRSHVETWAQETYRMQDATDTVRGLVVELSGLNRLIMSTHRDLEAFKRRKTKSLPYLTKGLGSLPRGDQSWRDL

binding [1]: binds | binding [2]: no binding | binding [3]: binds | binding [4]: binds
B1: FLAG-tagged HSF2BP (protein, UniProt Q9D4G2 1-338)
chain: MAATVGDGSGTEEACRNMESKEEFVKVRKKDLERLTTEVMQIRDFLPRILNGELLESFQKLKMVEKNLERKEQELEQLIMDREHFKARLETAQADSGREKKEKLALRQQLNEAKQQLLQQAEYCTQMGAVTCTLLWGVSSSEEVVKTILGGDKALKFFNITGQTMESFVKSLDGDVKEVDSDENQFVFALAGIVTNVAAIACGREFLVNSSRVLLDTMLQLLGDLKPGQCTKLKVLMLMSLYNVSINSKGLKYITESPGFIPLLWWLLSDPDAEVCLHTLRLIQSVVLEPDVFSKVASELQSSLPLQRILAMSKSRNSHLQSAAQELLEDLRALDCNV
